PubChem BioAssay AID504832 (National Center for Advancing Translational Sciences (NCATS), 2011)
Hit rate of the full screen: of about 310,000 compounds, about 18,000 (5.8%) were called active. This list was built around the results that the source calls inconclusive (neither active nor inactive); the mix of calls is not that of the screen. The call rests on the fitted dose curve; in most records, active means well fitted inhibition curve with a large enough effect; inconclusive means small, poorly fitted or top-dose-only effect, or another doubt; inactive means no such curve, though single readings can be large or run the other way. Potencies of inconclusive entries are left out as doubtful fits.

Experiment: Primary qHTS for delayed death inhibitors of the malarial parasite plastid, 48 hour incubation
Conditions: P. falciparum luciferase growth in erythrocytes; series mostly up to 28.7 µM
Outline: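 A one-generation exposure of luciferase-tagged malaria parasites in RPMI 1640/Albumax erythrocyte culture, 37 C and 5% CO2. Inhibition is inferred from decreased luminescence after adding detection reagent.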
Potency means the concentration at half of the fitted maximal effect; tags describe the fitted curve by direction and shape.

Row | Structure (SMILES) | Potency
1 | CC1=C/C(=N\NC(=S)NCCc2ccccc2)CC(C)(C)C1 | inactive
2 | COc1ccccc1C1=Nn2c(COc3ccccc3)nnc2SC1 | inconclusive [inhibitor, partial curve]
3 | CCN(CC)S(=O)(=O)c1cccc(NC(=O)c2cc(-c3cccs3)nn2-c2ccccc2)c1 | inactive
4 | Cc1nn(-c2ccccc2)c(C)c1C(=O)OCC(=O)NC12CC3CC(CC(C3)C1)C2 | inconclusive [inhibitor, partial curve]
5 | O=C(CNC(=O)C12CC3CC(CC(C3)C1)C2)N1CCN(S(=O)(=O)c2cccs2)CC1 | inconclusive [inhibitor, single point]
6 | COc1ccc(OC)c(CCNC(=O)c2ccc3c(c2)N(Cc2ccccc2)CCS3)c1 | inconclusive [inhibitor, single point]
7 | O=C(NCC1CCCO1)c1cc2n(n1)C(C(F)(F)F)CC(c1ccc(F)cc1)N2 (centres undefined) | inconclusive [inhibitor, full curve, poor fit]
8 | Cc1cc(C)n(-c2ncnc3ccccc23)n1 | inactive
9 | O=C(NCc1nc2ccccc2[nH]1)c1cccs1 | inactive
10 | O=C(NCC(=O)N1CCCCCCC1)c1ccccc1Br | inactive
11 | CC(C)n1cc(/C=N/NC(=O)COc2cccc3cccnc23)c2ccccc21 | inconclusive [inhibitor, partial curve]
12 | COc1ccc(OC)c(C2CC(=O)C3=C(C2)NC(=O)CC3c2ccc(O)c(OC)c2)c1 (centres undefined) | inconclusive [inhibitor, partial curve]
13 | COc1ccc([C@]23Cc4ccccc4C(O2)C2=C(CC(C)(C)CC2=O)O3)cc1 | inconclusive [inhibitor, partial curve]
14 | COc1ccc(NC(=O)CSc2ccc(-c3cccs3)nn2)c(OC)c1 | inconclusive [inhibitor, single point]
15 | CCOc1ccc(N(CC(=O)NC2CCC(C)CC2)S(=O)(=O)c2c(C)noc2C)cc1 (centres undefined) | inconclusive [inhibitor, single point]
16 | CCOC(=O)C1CCCN(CC(=O)Nc2nccs2)C1 (centres undefined) | inconclusive [inhibitor, partial curve, poor fit]
17 | Cc1ccc(NC(=O)c2cc(S(=O)(=O)N3CCOCC3)cs2)cc1 | inconclusive [inhibitor, single point]
18 | Fc1ccccc1CCNCc1cccc(Cl)c1Cl | inactive
19 | Cc1cc(/C=c2\sc3nc4ccccc4n3c2=O)c(C)n1-c1ccc(C(=O)O)cc1 | inactive
20 | N/C(=N\OC(=O)c1cccc([N+](=O)[O-])c1)c1cccnc1 | inactive
21 | O=C(CN1CCN(C(=O)c2ccccc2)CC1)Nc1cc(S(=O)(=O)N2CCCC2)ccc1Cl | active: 10.4 µM
22 | Cc1ccc(N2C(=O)N(CC(=O)Nc3cc(Cl)ccc3C)C(=O)C2C)cc1 (centres undefined) | inconclusive [inhibitor, single point]

Row | Structure (SMILES) | Potency
23 | Cn1c2ccccc2c(=O)c2cc(C#Cc3ccccn3)ccc21 | inactive
24 | CC(C)(C)c1ccc(CCC2OCC(CN3CCOCC3)O2)cc1 (centres undefined) | inconclusive [inhibitor, single point]
25 | CC(C)(C)NC(=O)C(c1ccc(O)cc1)N(C(=O)CCC(=O)Nc1nccs1)c1ccc(F)cc1 (centres undefined) | inconclusive [inhibitor, partial curve, poor fit]
26 | COc1ccc(C(CNC(=O)c2oc3ccc(F)cc3c2C)N2CCCCC2)cc1 (centres undefined) | inconclusive [inhibitor, single point]
27 | COc1ccc(N2CCC(CNC(=O)Nc3ccccc3)C2)cc1 (centres undefined) | inconclusive [inhibitor, partial curve, poor fit]
28 | Cc1ccccc1NC(=O)CSc1cn[nH]n1 | inactive
29 | Cc1cccc(-n2c(O)c(C=Nc3ccccc3)c3ccccc3c2=O)n1 | inactive
30 | COC(=O)c1c(NC(=O)CCl)sc(C(=O)N2CCOCC2)c1C | inconclusive [inhibitor, single point]
31 | Cc1ccc(S(=O)(=O)Nn2c(O)c(C=C3N=c4ccccc4=N3)sc2=S)cc1 | inconclusive [inhibitor, single point]
32 | CC(C)(C)c1cc(Cl)c(O)c(NC(=S)NC(=O)c2cccnc2)c1 | inconclusive [inhibitor, single point]
33 | CCCCCNC(=O)c1ccc2c(=O)n(CC3CCCO3)c(=O)[nH]c2c1 (centres undefined) | active: 1.31 µM
34 | CC(=O)Nc1cc2c(cc1C(=O)c1ccccc1)OCCO2 | inconclusive [inhibitor, full curve, poor fit]
35 | O=C(COc1ccccc1[N+](=O)[O-])Nc1ccc(NC(=O)c2cc3ccccc3o2)cc1 | inconclusive [inhibitor, partial curve]
36 | CCCN(Cc1nnc(-c2cccs2)o1)C(=O)CN1C(=O)NC2(CCCCC2)C1=O | inactive
37 | CCCC1c2ccc(C)n2CCN1C(=O)Nc1ccccc1Cl (centres undefined) | inconclusive [inhibitor, single point]
38 | Cc1ccc(CN2CCC(n3nccc3NC(=O)CCCc3ccccc3)CC2)o1 | inconclusive [inhibitor, partial curve, poor fit]
39 | COc1ccc(S(=O)(=O)Nc2cccc(-c3ccc(N4CCCCCC4)nn3)c2)cc1OC | inconclusive [inhibitor, partial curve, poor fit]
40 | C=CCn1c(N)c(C(=O)OCC(C)C)c2nc3ccccc3nc21 | inconclusive [inhibitor, single point]
41 | COc1ccccc1NC(=O)COc1ccc(C(=O)NCc2ccccc2)cc1OC | active: 13.1 µM
42 | COc1ccccc1C(=O)N/N=C(\C)CC(=O)Nc1ccc2c(c1)OCCO2 | inactive
43 | Cc1occc1C(=O)NNC(=O)C(c1ccccc1)c1ccccc1 | inactive
44 | CCOc1ccc(OCCCC(=O)N(C)CC(=O)Nc2ccc(N3CCOCC3)cc2)cc1 | inconclusive [inhibitor, single point]
